{
  "source": "patent US20250145963A1",
  "about": "“Improved Differentiation Method” (Koninklijke Nederlandse Akademie Van Wetenschappen, priority 2016, published 2025)",
  "key": {"[1]": {"target": "T1, glucocorticoid receptor (Homo sapiens, UniProt P04150)", "T1 sequence (P04150 1-777)": "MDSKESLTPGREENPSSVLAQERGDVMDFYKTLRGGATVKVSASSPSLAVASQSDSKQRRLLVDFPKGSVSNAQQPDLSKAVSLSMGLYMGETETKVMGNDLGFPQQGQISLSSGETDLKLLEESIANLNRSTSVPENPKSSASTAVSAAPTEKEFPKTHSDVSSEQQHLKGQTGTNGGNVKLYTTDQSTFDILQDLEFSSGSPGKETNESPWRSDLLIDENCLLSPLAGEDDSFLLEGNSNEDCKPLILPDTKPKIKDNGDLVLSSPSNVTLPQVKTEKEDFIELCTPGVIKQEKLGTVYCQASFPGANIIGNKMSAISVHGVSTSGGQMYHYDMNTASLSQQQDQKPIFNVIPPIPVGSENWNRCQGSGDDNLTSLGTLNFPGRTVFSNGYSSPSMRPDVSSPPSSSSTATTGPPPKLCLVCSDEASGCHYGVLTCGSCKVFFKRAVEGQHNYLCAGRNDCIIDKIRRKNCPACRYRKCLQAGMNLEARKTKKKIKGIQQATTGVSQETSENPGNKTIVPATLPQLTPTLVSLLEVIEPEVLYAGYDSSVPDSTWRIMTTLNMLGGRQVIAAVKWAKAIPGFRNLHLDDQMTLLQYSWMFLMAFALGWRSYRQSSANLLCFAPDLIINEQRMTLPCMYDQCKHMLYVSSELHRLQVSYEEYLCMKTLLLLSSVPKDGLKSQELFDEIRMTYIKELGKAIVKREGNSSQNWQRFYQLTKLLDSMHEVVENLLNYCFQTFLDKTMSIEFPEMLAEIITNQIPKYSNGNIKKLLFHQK", "conditions": "oral dosing; in comparison to cortisol; cited from earlier work"}, "[2]": {"test_system": "intestinal organoids", "assay": "Cell cycle analysis of intestinal organoids (EdU, KI67, Hoechst DNA content)", "assay_type": "cell-based, mouse", "conditions": "for quiescence of Lgr5+ cells: FIG. 2B"}, "[3]": {"test_system": "cells in the villus of the intestine", "assay": "Oral gavage of mice with BMP inhibitor, villus hormone expression", "assay_type": "in vivo", "conditions": "35 mg/kg oral gavage twice daily, 60 hour treatment"}, "[4]": {"test_system": "intestinal organoids", "assay": "Marker analysis of EECs (CHGA) and Paneth cells (LYZ) in treated organoids", "assay_type": "cell-based, mouse", "conditions": "4 days treatment"}, "[5]": {"test_system": "Lgr5+ stem cells", "assay": "RNA sequencing of FACS-isolated active and quiescent Lgr5+ stem cells"}, "[6]": {"test_system": "Lgr5+ cells of intestinal organoids", "assay": "Flow cytometry of Lgr5GFPDTR organoids (Lgr5-GFP, KI67)", "assay_type": "cell-based, mouse", "conditions": "for KI67 expression of remaining Lgr5 GFP cells: control 94.4±2.1%"}, "[7]": {"test_system": "intestinal organoids", "assay": "Cellular composition of organoids after EGFRi treatment (goblet and Tuft cell staining)"}, "[8]": {"test_system": "ERK phosphorylation", "assay": "ERK phosphorylation in organoids (histology)", "assay_type": "cell-based, mouse", "conditions": "as early as after 1 h"}, "[9]": {"test_system": "glucagon secretion", "conditions": "through modulation of calcium channel activity; cited from earlier work"}},
  "note": "Where no end group is shown, it is not given here.",
  "data": [
    {"compound": "C[C@]12CCC(=O)C=C1CC[C@@H]1[C@@H]2C(=O)C[C@@]2(C)[C@H]1CC[C@]2(O)C(=O)CO", "note": "[Cortisone]", "values": [
      {"measurement": "Glucocorticoid potency", "setting": "[1]", "result": 0.8}
    ]},
    {"compound": "O=C(Nc1ccc2[nH]nc(-c3ccncc3)c2c1)[C@@H]1CCN(CC(=O)N2CCN(c3ccc(-c4ncccn4)cc3)CC2)C1", "note": "[SCH772984]", "values": [
      {"measurement": "quiescence of Lgr5+ cells", "setting": "[2]", "result": "induced quiescence of Lgr5+ cells"}
    ]},
    {"compound": "C[C@]12C=CC(=O)C=C1CC[C@@H]1[C@@H]2[C@@H](O)C[C@@]2(C)[C@H]1CC[C@]2(O)C(=O)CO", "note": "[Prednisolone]", "values": [
      {"measurement": "Glucocorticoid potency", "setting": "[1]", "result": 4}
    ]},
    {"compound": "Cl.c1ccc2c(-c3cnn4cc(-c5ccc(N6CCNCC6)cc5)cnc34)ccnc2c1", "note": "[LDN193189]", "values": [
      {"measurement": "Secretin expression in cells in the villus compared to control mice", "setting": "[3]", "result": "greatly reduced"}
    ]},
    {"compound": "COc1cc2ncnc(Nc3ccc(F)c(Cl)c3)c2cc1OCCCN1CCOCC1", "note": "[Gefitinib]", "values": [
      {"measurement": "secretory cell differentiation (EEC, Paneth, Goblet cell numbers)", "setting": "[4]", "result": "inhibited Goblet cell differentiation, but spared Paneth cells and EECs"},
      {"measurement": "Etv4 down-regulation in quiescent Lgr5+ stem cells", "setting": "[5]; d4, p-adj<0.001", "result": 7.7, "unit": "×"},
      {"measurement": "Etv5 down-regulation in quiescent Lgr5+ stem cells", "setting": "[5]; d4, p-adj<0.001", "result": 7.7, "unit": "×"},
      {"measurement": "Ccnb1 decrease in quiescent Lgr5+ stem cells", "setting": "[5]; d4, p-adj<0.005", "result": 2.1, "unit": "×"},
      {"measurement": "Rnf43 increase in quiescent Lgr5+ stem cells", "setting": "[5]; d4, p-adj<0.005", "result": 2.3, "unit": "×"},
      {"measurement": "Ccnb2 decrease in quiescent Lgr5+ stem cells", "setting": "[5]; d4, p-adj<0.05", "result": 1.9, "unit": "×"},
      {"measurement": "Dclk1 increase in quiescent Lgr5 cells", "setting": "[5]; d4, p-adj<0.05", "result": 6, "unit": "×"},
      {"measurement": "Chga higher in quiescent compared to active Lgr5+ stem cells", "setting": "[5]; d4, p-val=0.019, padj=0.28", "result": 7.3, "unit": "fold"},
      {"measurement": "Lgr5 increase in quiescent Lgr5+ stem cells", "setting": "[5]; d4, padj<0.05", "result": 2, "unit": "×"},
      {"measurement": "Lgr5+ cells as fraction of the organoids", "setting": "[6]; after 4 days of treatment, control 13.6±6.5%", "result": "44.4±0.8", "unit": "%"},
      {"measurement": "number of goblet cells (Muc2, PAS, Alcian blue)", "setting": "[7]", "result": "significant reduction in the number of goblet cells"},
      {"measurement": "absolute number of Dclk1+ Tuft cells", "setting": "[7]; 11.3±6.6 in ENR", "result": "35.8±8.8"},
      {"measurement": "DNA content (Hoechst DNA staining), cell cycle phase", "setting": "[2]", "result": "all cells were in G0/G1 phase"},
      {"measurement": "DNA replication (short pulse of EdU)", "setting": "[2]; from 24 h, persisted at least a week", "result": "rapid halt in DNA replication"},
      {"measurement": "ERK phosphorylation", "setting": "[8]", "result": "reduced ERK phosphorylation"}
    ]},
    {"compound": "O=C(NOC[C@H](O)CO)c1ccc(F)c(F)c1Nc1ccc(I)cc1F", "note": "[PD0325901]", "values": [
      {"measurement": "quiescence of Lgr5+ cells", "setting": "[2]", "result": "induced quiescence of Lgr5+ cells"}
    ]},
    {"compound": "C[C@]12CCC(=O)C=C1CC[C@@H]1[C@@H]2[C@@H](O)C[C@@]2(C)[C@H]1CC[C@]2(O)C(=O)CO", "note": "[Cortisol (hydrocortisone), Cortisol]", "values": [
      {"measurement": "Glucocorticoid potency", "setting": "[1]", "result": 1}
    ]},
    {"compound": "C[C@]12C=CC(=O)C=C1CC[C@H]1[C@@H]3C[C@@H](O)[C@](O)(C(=O)CO)[C@@]3(C)C[C@H](O)[C@@]12F", "note": "[Triamcinolone]", "values": [
      {"measurement": "Glucocorticoid potency", "setting": "[1]", "result": 5}
    ]},
    {"compound": "C[C@H](NC(=O)Cc1cc(F)cc(F)c1)C(=O)N[C@H](C(=O)OC(C)(C)C)c1ccccc1", "note": "[DAPT]", "values": [
      {"measurement": "secretory cell differentiation (EEC, Paneth, Goblet cell numbers)", "setting": "[4]", "result": "large increase in the number of LYZ+ Paneth cells"},
      {"measurement": "KI67 expression of remaining Lgr5 GFP cells", "setting": "[6]", "result": "45.1±10", "unit": "%"}
    ]},
    {"compound": "Cc1ccc2nc(NC(=O)CSc3nc4c(c(=O)n3-c3ccccc3)SCC4)sc2c1", "note": "[IWP-2]", "values": [
      {"measurement": "KI67 expression of remaining Lgr5 GFP cells", "setting": "[6]", "result": "63.5±2.8", "unit": "%"}
    ]},
    {"compound": "GLP-1: endogenous incretin, Glucagon-like peptide-1 (HAEGTFTSDVSSYLEGQAAKEFIAWLVKGR; ends and bridges not checked; UniProt P01275 98-127, looked up)", "values": [
      {"measurement": "inhibition of glucagon secretion", "setting": "[9]", "result": 50, "unit": "%"}
    ]}
  ]
}
